Reference: article PMC11532958, “Role of protein domains in trafficking and localization of the voltage-gated sodium channel β2 subunit” (The Journal of Biological Chemistry, 2024)

Molecular target: the molecule itself
Assay: non-reducing SDS-PAGE with Western blot; lysates of MDCK cells transiently expressing WT or mutant β2-YFP, prepared the day after transfection; DTT omitted and samples not heated, in parallel with reducing conditions (DTT); parental cells or cells stably expressing NaV1.5-YFP (comparable pattern)

B1: β2-YFP C50A (natural protein)
chain: not shown
notes: voltage-gated sodium channel β2 subunit, human, SCN2B cDNA (CCDS 8390.1) with Cys-50 changed to Ala; source: MDCK cells, transiently transfected, in lysate; not shown: YFP, C-terminal, kept
For B1, the “stoichiometry N” value was roughly 4.

B2: β2-YFP C127A (natural protein)
chain: not shown
notes: source: MDCK cells, transiently transfected, in lysate; not shown: YFP, C-terminal, kept
For B2, the “stoichiometry N” value was roughly 4.
